Assay results reported in PubChem BioAssay AID894 (National Center for Advancing Translational Sciences (NCATS), 2007).
Screen size: about 150,000 compounds; about 6,500 (4.3%) were called active. This list was built around the results that the source calls inconclusive (neither active nor inactive); the mix of calls is not that of the screen. Calls come from the whole dose curve; as a rule, active = well fitted inhibition curve with a large enough effect (not every such curve was filed as active); inconclusive = small, poorly fitted or top-dose-only effect, or another doubt; inactive = no such curve, though single readings can be large or run the other way. A potency beside an inconclusive call is a rough fit, not a confirmed value.

target: 15-hydroxyprostaglandin dehydrogenase [NAD(+)] (Homo sapiens) (UniProt P15428); experiment: qHTS Assay for Inhibitors of HPGD (15-Hydroxyprostaglandin Dehydrogenase); details: purified HPGD, NADH fluorescence kinetic, PGE2 substrate; activity change, negative = inhibition: hits give low values
Sequence of UniProt P15428 (P15428 whole entry, looked up): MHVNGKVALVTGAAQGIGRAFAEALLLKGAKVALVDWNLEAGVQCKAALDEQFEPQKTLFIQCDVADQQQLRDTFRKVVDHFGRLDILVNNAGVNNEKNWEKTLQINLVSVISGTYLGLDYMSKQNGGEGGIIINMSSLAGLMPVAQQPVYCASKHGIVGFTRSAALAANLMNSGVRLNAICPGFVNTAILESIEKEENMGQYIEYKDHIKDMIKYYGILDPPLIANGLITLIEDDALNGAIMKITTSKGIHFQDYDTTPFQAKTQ
Procedure, shortened: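 NADH formation kinetics: reaction with 30 uM PGE2 and 1 mM NAD+ (final), 20 nM enzyme, Tris-HCl pH 8 with Tween 20, after 15 min compound preincubation at room temperature. Fluorescence change, last versus first of five reads.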
% is set by controls: 0 for no effect and ±100 for the full control effect; potency is the fitted concentration of half-maximal effect; tags give direction and shape of the fitted curve.

Potency, active:
CN(C)c1nc(N)nc(/C(C#N)=C/C2CC3C=CC2C3)n1 (configuration not stated) 17.8 µM
CCOC(=O)c1c(N)sc2c1CCS(=O)(=O)C2 39.8 µM
O=C(NCc1ccccn1)c1ccc2nc(-c3ccco3)c(-c3ccco3)nc2c1 14.1 µM
O=C(c1ccccc1Cl)N1CCC(c2nc3c(nnn3Cc3ccco3)c(=O)[nH]2)CC1 14.1 µM
Cn1c(=O)cc(OCCCC(=O)N2CCCCC2)c2ccccc21 7.08 µM

Potency, inconclusive:
CCOC(=O)c1[nH]c2ccc(C)cc2c1NC(=O)CN1CCCCC1 25.1 µM [inhibitor, partial curve, poor fit]
Cn1c(NCc2cc(Br)ccc2O)nc2ccccc21 39.8 µM [inhibitor, partial curve, poor fit]
CN(Cc1ccco1)c1nc(-c2cccc(C#N)c2)nc2ccccc12 28.2 µM [inhibitor, single point]
CC(C)CC(=O)NC(=S)Nc1ccccc1C(F)(F)F 31.6 µM [inhibitor, partial curve]
O=S(=O)(c1ccc(-c2cn3ccccc3n2)cc1)N1CCOCC1 28.2 µM [inhibitor, partial curve]
CCc1nc(Nc2ccc3nccnc3c2)c2oc3ccccc3c2n1 31.6 µM [inhibitor, partial curve]
Cc1cccc(OCCCCCn2ccnc2)c1C 31.6 µM [inhibitor, partial curve]
c1ccc2[nH]c(CSc3ncnc4c3oc3ccccc34)nc2c1 15.8 µM [inhibitor, partial curve]
Cc1cc(N2CCC(C)CC2)n2nc(C)c(-c3ccccc3)c2n1 39.8 µM [inhibitor, partial curve, poor fit]
Cc1c(-c2nc(N)nc(Nc3ccccc3)n2)oc2ccccc12 28.2 µM [inhibitor, single point]
COc1ccc(/C(C)=N/NC(=O)c2ccc(CSc3cccc4cccnc34)cc2)cc1OC 28.2 µM [inhibitor, partial curve]
COc1cc(OC)c(-c2nnc(-c3ccc(OC)c(OC)c3OC)o2)cc1OC 31.6 µM [inhibitor, partial curve]
Clc1cccc(/C=N/Nc2nc(Cl)nc3ccccc23)c1 25.1 µM [inhibitor, partial curve, poor fit]
CCCC(=O)Nc1nnc(-c2ccc(Cl)s2)o1 28.2 µM [inhibitor, partial curve, poor fit]
CCOC(=O)c1[nH]nc(N)c1NC(=O)c1ccc(Cl)cc1Cl 22.4 µM [inhibitor, partial curve, poor fit]
Cc1cnn(-c2ccc3nnc(-c4ccc(Cl)cc4)n3n2)c1 35.5 µM [inhibitor, single point]
CCOC(=O)c1c(NC(=O)c2nn(CC)cc2Br)c(C#N)nn1-c1ccccc1 11.2 µM [inhibitor, partial curve]
CC1CN(c2oc(-c3cccs3)nc2C#N)CC(C)O1 (configuration not stated) 25.1 µM [inhibitor, partial curve]
CCOc1ccc(CNc2ccc3c(c2)ncn3C)cc1 28.2 µM [inhibitor, partial curve]
CCOC(=O)CSc1nc(N)c(C#N)c(-c2ccc(OCC)cc2)c1C#N 22.4 µM [inhibitor, single point]
Cc1cccc(CNc2ncnc3ccc(-c4ccccc4CN(C)C)cc23)c1 14.1 µM [inhibitor, partial curve]
CC(C)c1ccc(NC(=O)c2csnn2)cc1 35.5 µM [inhibitor, partial curve]
CC1CCCN(Cc2c(O)ccc3c(=O)c(-c4nc5ccccc5s4)c(N)oc23)C1 (configuration not stated) 15.8 µM [inhibitor, partial curve]
OCc1ccc(-c2nn(Cc3ccccc3)c3ccccc23)o1 35.5 µM [inhibitor, partial curve]
COc1ccc(-c2nc3cnc(N4CCNCC4)nc3n(C3CC3)c2=O)cc1 31.6 µM [inhibitor, partial curve]

Activity change, negative = inhibition, inactive:
O=C1OCCC1Sc1nnc(-c2ccccc2)o1 (configuration not stated) -7.3%
CCN1CCc2c(sc(NC(=O)c3ccc(S(=O)(=O)N4CCOCC4)cc3)c2C(N)=O)C1 -13.8%
O=C(CCSc1nc(-c2ccco2)cc(C(F)(F)F)n1)N1CCN(c2ccccn2)CC1 -16.8%
CNC(=S)N/N=C/c1ccc(OCC(=O)Nc2c(C)cc(C)cc2C)c(OC)c1 -18.5%
COc1ccccc1NC(=O)N1CCc2[nH]c3ccc(Cl)cc3c2C1 -10.8%
COc1ccc(NC(=O)N2CCCC3(CCN(C(=O)c4c(C)noc4C)CC3)C2)cc1 -6.93%
CCN(CC)S(=O)(=O)c1ccc(-c2nnc(SCC(=O)Nc3nc(C)cs3)o2)cc1 -7.98%
O=C(/C=C/c1ccc(Br)cc1)c1ccco1 -15.1%
O=C(O)CCc1nc2ccccc2[nH]1 -11.3%
Cc1nn(-c2ccccc2)c(Cl)c1/C=C(\C#N)C(=O)NC(C)C -25.8%
Cc1cc(C(=O)NCC(=O)O)c(C)o1 -11.8%
CCCc1nc(C)c(-c2ccc(OC)c(OC)c2)c(=O)[nH]1 -9.67%
O=S(=O)(Nc1ccc(S(=O)(=O)Nc2nccs2)cc1)c1ccc2c(c1)OCCO2 -19.9%
O=C(c1ccco1)N1CCN(C(=O)c2cc3sccc3n2Cc2ccccc2)CC1 -7.56%
COc1ccc(C(C)=O)cc1COC(=O)c1ccc(S(=O)(=O)N2CCOCC2)cc1 -4.37%
CCN(CC)CCCNC(=O)c1ccc2c(SCC(=O)O)c3c(nc2c1)CCC3 -7.66%
O=C(/C=C(/c1ccc(Cl)cc1)n1cncn1)c1ccccc1 -23.5%
